Results published in article PMC6919601, “Identification of Plasmodium dipeptidyl aminopeptidase allosteric inhibitors by high throughput screening” (PLoS ONE, 2019).
Among all 110,000 compounds or so, about 230 (0.21%) showed an effect of 50% or more. The list shows a part of the results.

target: DPAP1 (Plasmodium falciparum, UniProt Q8IIJ9); experiment: primary screen, percent inhibition; read by cleavage of a fluorogenic dipeptide substrate; higher = more effect of the substance; set-up: species or system P. falciparum D10 trophozoite lysates; single well
Sequence (Q8IIJ9 whole entry, looked up): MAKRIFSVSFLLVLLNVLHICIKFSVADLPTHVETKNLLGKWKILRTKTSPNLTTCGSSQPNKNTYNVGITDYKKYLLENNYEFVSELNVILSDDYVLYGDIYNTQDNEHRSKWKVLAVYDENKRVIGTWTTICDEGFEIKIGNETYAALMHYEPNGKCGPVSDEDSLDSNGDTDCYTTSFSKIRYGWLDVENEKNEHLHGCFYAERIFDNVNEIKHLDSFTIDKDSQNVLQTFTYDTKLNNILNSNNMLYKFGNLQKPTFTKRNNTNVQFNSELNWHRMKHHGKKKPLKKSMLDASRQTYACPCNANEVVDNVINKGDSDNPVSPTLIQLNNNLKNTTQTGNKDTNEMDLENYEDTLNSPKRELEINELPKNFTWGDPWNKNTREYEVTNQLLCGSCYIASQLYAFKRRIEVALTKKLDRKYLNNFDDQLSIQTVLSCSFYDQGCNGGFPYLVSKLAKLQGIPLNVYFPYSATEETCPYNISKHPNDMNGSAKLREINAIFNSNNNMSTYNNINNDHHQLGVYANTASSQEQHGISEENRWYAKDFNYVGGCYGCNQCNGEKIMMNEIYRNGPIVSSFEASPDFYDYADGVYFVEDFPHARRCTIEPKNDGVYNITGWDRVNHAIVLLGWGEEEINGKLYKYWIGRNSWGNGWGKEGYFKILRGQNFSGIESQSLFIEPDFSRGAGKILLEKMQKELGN
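Note: 30 min substrate incubation versus DMSO and 10 µM JCP410 controls.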

Compound | % Inhibition @ 10 uM [%]
CN1CCN(CC(=O)N2c3ccccc3C(C)(c3ccccc3)CC2(C)C)CC1 (stereo not shown) | 3.76
Cc1oc2c(c(C)cc3oc(=O)cc(C)c32)c1C | 5.35
Cc1ccc(C(C)C)c(OCC(=O)Nc2cccc([N+](=O)[O-])c2)c1 | -0.0267
Cc1cccn2c(=O)c3cc(C#N)c(=O)n(-c4nccs4)c3nc12 | 1.12
Cc1cc(C(F)(F)F)nn1C(=O)COc1ccccc1Br | -2.9
N#Cc1c(-n2ncnc2-c2cccc(Cl)c2Cl)sc2c1CCCCC2 | -4.32
Cc1ccc(S(=O)(=O)Nc2c(O)oc3ccccc3c2=O)c(C)c1 | -0.0709
COc1ccc(C(=O)C2=C(O)C(=O)N(Cc3cccnc3)C2c2ccc(C)cc2)cc1 (stereo not shown) | 0.487
CCOC(=O)C1=CN(C(C)C)C=C(C(=O)OCC)C1c1ccc(OC)c(OC)c1OC | -1.69
Cn1c(=O)n(C)c2cc(/C=C3/SC(=O)N(CC(=O)N4CCCCC4)C3=O)ccc21 | 10.8
CC1(C)CC(O)=C(C(=S)Nc2ccccc2)/C(=N/C2CC(C)(C)NC(C)(C)C2)C1 | 1.37
CN(C)CCNC(=O)Cn1nc(Cc2cccnc2)c2ccccc2c1=O | -2.92
COC(=O)c1ccc(-c2ccco2)n1CC(=O)NCc1ccc(OC)cc1 | 2.86
CC(=O)N1N=C(c2ccccc2)OC1(C)C12CC3CC(CC(C3)C1)C2 (stereo not shown) | -0.0678
O=C(Cn1c2ccccc2c2cnnc(O)c21)NC1CCN(Cc2ccccc2)CC1 | 1.38
COc1cc2c(cc1OC)C(O)C(C)(C)N(CCC(c1ccccc1)c1ccccc1)C2 (stereo not shown) | -6.29
OC1=C2C(=Nc3nc(-c4cccc(O)c4)nn3C2c2ccccc2Cl)CCC1 (stereo not shown) | 3.59
O=c1c2ccccc2nc(Cc2ccccc2)n1-c1ccccc1O | 0.812
CN(Cc1ccccc1)Cc1ccco1 | -7.93
COc1cc(/C=C2\S/C(=N/c3ccc(Cl)c(C(=O)O)c3)N(C)C2=O)cc(OC)c1OC | 3.83
O=C(Nc1cccc(C(F)(F)F)c1)c1ccc([N+](=O)[O-])o1 | 1.9
O=C(Nc1ccc(F)cc1)c1cccc(Br)c1 | 7.65
CC(=O)c1ccc(C(=O)N(CCN(C)C)c2nc3c(Cl)cccc3s2)cc1 | 0.693
O=C(O)CCCCc1cc2c(s1)CCCC(=O)N2 | 2.33
O=C(O)CCSc1nc2c(cnn2-c2ccccc2)c(=O)n1-c1ccccc1 | 2.32

Compound | % Inhibition @ 10 uM [%]
CCC(C(=O)Nc1nc2nccc(C)n2n1)c1ccccc1 (stereo not shown) | -1.31
NC1=NC(=O)/C(=C/c2cn(CCC(=O)O)nc2-c2ccc(F)cc2)S1 | 2.46
COc1ccc(CN2CCN(Cc3ccccc3C)CC2)cc1OC | -0.251
Cc1ccc(-c2cn3c(n2)sc2cc(C(=O)NCCCN4CCOCC4)ccc23)cc1 | 5.11
Cc1ccccc1-n1nc2c(c1NC(=O)CCC1CCCCC1)CS(=O)(=O)C2 | 3.37
COc1ccccc1N1CCN(S(=O)(=O)c2ccc(C(C)(C)C)cc2)CC1 | -17.2
COCCCNC(=O)c1cc(-c2ccc(F)cc2)[nH]c1C | 3.64
CCOc1ccc(C2CC(=O)Nc3c2c(=O)nc(SCc2ccc(C)cc2)n3C)cc1OC (stereo not shown) | -1.11
Cc1cc(-c2cccc([N+](=O)[O-])c2)nc2ccc3ccccc3c12 | -2.47
CC(C)Oc1ccccc1NC(=O)CSCC(=O)Nc1ccc2ccccc2c1 | -2.07
COc1cc(C(=O)NC2=NC(=O)CC(c3ccccc3Cl)N2)cc(OC)c1OC (stereo not shown) | -7.18
CCOc1ccc(NC(=O)c2ccc(Br)cc2)cc1 | -2
CC1CCCCN1C(=O)Cn1ncc2c1-c1ccccc1OC2 (stereo not shown) | -1.66
CN1CCN(C(=O)C(Sc2ccccc2)c2ccccc2)CC1 (stereo not shown) | 1.64
COc1ccc(OC)c(NC(=O)CN(c2ccc(C(C)C)cc2)S(C)(=O)=O)c1 | -10.8
COc1ccc(C2CC(c3c(F)cccc3Cl)n3nnnc3N2)cc1 (stereo not shown) | 3.32
CC1(C)CC2=Nc3nc(-c4ccccc4)nn3C(c3ccc(F)cc3)C2=C(O)C1 (stereo not shown) | 0.674
CCOC(=O)c1cnc2c(C(F)(F)F)cccc2c1N1CCN(C)CC1 | -0.169
COCC(C)NC(=O)c1onc(C)c1Cl (stereo not shown) | -9.31
COc1cc(CNC(C)(C)CO)cc(Cl)c1OCC(N)=O | -4.93
Cc1ccccc1CNc1nc2ccccc2n1C | 6.31
Cc1cc(O)c(NC(=O)c2ccccc2Cl)cc1C | -2.44
CC(C)NC(=O)C1CCCN(c2nn3cc(-c4ccc(F)cc4)nc3s2)C1 (stereo not shown) | 5.38
COc1ccc(OC)c(-c2nnc3n(Cc4ccc(F)cc4)c(=O)c4ccccc4n23)c1 | -1.72
